{"source": "PubChem BioAssay AID1508649", "about": "(National Center for Advancing Translational Sciences (NCATS), 2021)", "note": "Out of some 43,000 compounds screened, about 830 (1.9%) were called active. Inconclusive results, whose numbers are uncertain, are shown with a selection of clear calls. How the source made its calls: active means clear falling dose curves in both reporters; inconclusive means both reporters move, but less clearly or upward; inactive means either reporter flat; the % is the NLuc reporter signal. Potencies of inconclusive entries are left out as doubtful fits. Potency means the concentration at half of the fitted maximal effect; tags describe the fitted curve by direction and shape.", "data": [{"experiment": "Cell-based coincidence reporter assay to measure PMP22 gene transcription in S16 Pmp22-F2sN cells - Primary screen", "conditions": "S16 Pmp22-F2sN Schwann cells (luciferase reporters placed in the Pmp22 gene), FLuc/NLuc coincidence luminescence, 24 h; measured here: NLuc reporter readout, at 57.5 µM (top of the series)", "in_short": "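Reporter cells (S16 Pmp22-F2sN, 500–1,000 per well) exposed to compounds for 24 h, 37C, 5% CO2; lysis with FLuc read after 10 min, then Stop&Glo and NLuc read after 10 min.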", "values": [{"smiles": "Cc1ccc(C(C)C)c(OCC(=O)NCC2(N(C)C)CCCCC2)c1", "Potency": "inconclusive [phenotype inactive, partial curve]"}, {"smiles": "O=C(Nc1ccc2nn(-c3ccccc3)nc2c1)c1cc2ccccc2o1", "Potency": "inconclusive [phenotype inactive, single point]"}, {"smiles": "CCN(c1ccccc1)S(=O)(=O)c1ccc(NC(=O)c2cc(=O)c3cc(C)cc(C)c3o2)cc1", "Potency": "inactive"}, {"smiles": "O=C(Cn1cc(SCc2c(F)cccc2Cl)c2ccccc21)N1CCCCCC1", "Potency": "inconclusive [phenotype inactive, single point]"}, {"smiles": "COc1ccc(CN2CCN(Cc3cc(=O)oc4cc(C)ccc34)CC2)c(OC)c1OC", "Potency": "active: 16.8 µM"}, {"smiles": "COc1ccc(C(CNC(=O)c2oc3ccc(Cl)cc3c2C)N2CCCCC2)cc1", "note": "(configuration not stated)", "Potency": "inconclusive [phenotype inactive, single point]"}, {"smiles": "COc1cc(C2CC(=O)Nc3cc4c(cc32)OCCO4)cc(Br)c1OC", "note": "(configuration not stated)", "Potency": "active: 0.669 µM"}, {"smiles": "Cc1cccc(N2CCN(C(=O)CCCCn3c(=O)[nH]c4ccsc4c3=O)CC2)c1C", "Potency": "inconclusive [phenotype inactive, partial curve, poor fit]"}, {"smiles": "Cc1ccc(-c2nc(CCNC(=O)C(=O)Nc3ccc(C)cc3C)cs2)cc1", "Potency": "inconclusive [phenotype inactive, single point]"}, {"smiles": "CCN(CC)S(=O)(=O)c1ccc2c(c1)N(CC(=O)N1CCN(c3ccc(F)cc3)CC1)C(=O)CO2", "Potency": "inactive"}, {"smiles": "COc1ccc(CCNC(=O)C(=O)NCC(c2ccco2)S(=O)(=O)c2ccc(F)cc2)cc1", "note": "(configuration not stated)", "Potency": "inconclusive [phenotype inactive, single point]"}, {"smiles": "Cn1ccc2c(OCC(=O)Nc3cc(C(F)(F)F)ccc3Cl)cccc2c1=O", "Potency": "inconclusive [phenotype inactive, single point]"}, {"smiles": "O=C(NCCCc1ccccc1)C1CCN(C(=O)N2CCOc3ccc(Cl)cc32)CC1", "Potency": "inconclusive [phenotype inactive, single point]"}, {"smiles": "Cc1ccc(CCNC(=O)C2CCN(Cc3nc(-c4ccccc4C)oc3C)CC2)cc1", "Potency": "inconclusive [phenotype inactive, partial curve]"}, {"smiles": "CC(C)(C)OC(=O)N1CCC(c2c(C(=O)NCCN3CCC(Cc4ccccc4)CC3)cnn2-c2ccc(F)cc2)CC1", "Potency": "inconclusive [phenotype inactive, single point]"}, {"smiles": "Cc1cccc(N2CCN(S(=O)(=O)c3cc(C(=O)Nc4ccccc4Cl)ccc3F)CC2)c1C", "Potency": "inconclusive [phenotype inactive, single point]"}, {"smiles": "Cc1cc(C(=O)NCc2ccc(Cl)cc2)c2c(C)nn(-c3ccccc3)c2n1", "Potency": "inconclusive [phenotype inactive, partial curve, poor fit]"}, {"smiles": "Cc1c(-c2nsc(NC(=O)c3cccc(Cl)c3)n2)nnn1-c1ccccc1C(F)(F)F", "Potency": "inconclusive [phenotype inactive, single point]"}, {"smiles": "Cc1ccc(-c2noc(CCCC(=O)NCc3ccco3)n2)cc1", "Potency": "inactive"}, {"smiles": "CCCOc1ccc(C(=O)Nc2ccc(Cl)c(-c3nc4ncccc4o3)c2)cc1", "Potency": "inconclusive [phenotype inactive, single point]"}, {"smiles": "Cc1c(Cl)cccc1NC(=O)Nc1nnc(N(C)Cc2ccccc2)s1", "Potency": "inconclusive [phenotype inactive, single point]"}, {"smiles": "COc1ccc2c(c1)c(=O)c(S(=O)(=O)c1ccc(C)cc1)cn2Cc1ccccc1C", "Potency": "inconclusive [phenotype inactive, partial curve, poor fit]"}, {"smiles": "Cc1c(NC(=O)c2cccc3c(Cl)cccc23)cccc1-c1nc2ccccc2o1", "Potency": "inconclusive [phenotype inactive, single point]"}, {"smiles": "CCN(CCCNC(=O)CSc1cc(=O)n(CC)c2ccccc12)c1cccc(C)c1", "Potency": "inconclusive [phenotype inactive, single point]"}, {"smiles": "CCC(C(=O)Nc1ccccc1OC)n1nc(C)c2sc3ccccc3c2c1=O", "note": "(configuration not stated)", "Potency": "inconclusive [phenotype inactive, single point]"}, {"smiles": "Cc1cccc(OCCn2c(SCC(=O)O)nc3ccccc32)c1", "Potency": "inactive"}, {"smiles": "CCCCN1C(C(=O)c2ccccc2)=C(OC(C)=O)c2ccccc2S1(=O)=O", "Potency": "inconclusive [phenotype inactive, partial curve]"}, {"smiles": "COc1ccccc1NC(=O)CSC1=Nc2ccccc2C2=NC(CCC(=O)NCc3cccs3)C(=O)N12", "note": "(configuration not stated)", "Potency": "inconclusive [phenotype inactive, single point]"}, {"smiles": "CCc1ccc(NC(=O)CSc2nc3c(sc4ccccc43)c(=O)n2CCCOC(C)C)cc1", "Potency": "inconclusive [phenotype inactive, partial curve, poor fit]"}, {"smiles": "COc1cc(NC(=O)c2cn(C3CCCC3)c(=O)c3c2c2ccccc2n3C)cc(OC)c1OC", "Potency": "inconclusive [phenotype inactive, partial curve]"}, {"smiles": "Cc1ccc(O)c(NC(=O)c2cc(-c3ccccc3O)no2)c1", "Potency": "inactive"}, {"smiles": "O=C(Cn1c(=O)n(Cc2ccc(F)cc2)c(=O)c2sc3ccccc3c21)Nc1ccc(F)cc1F", "Potency": "inconclusive [phenotype inactive, single point]"}, {"smiles": "Cc1cccc(NC(=O)c2cc3c([nH]c2=O)CC(c2ccccc2)CC3=O)c1", "note": "(configuration not stated)", "Potency": "inconclusive [phenotype inactive, single point]"}, {"smiles": "O=C(CSc1nc2ccsc2c(=O)n1-c1ccc(Br)cc1)NCc1ccc(Cl)cc1", "Potency": "active: 12.4 µM"}, {"smiles": "Cc1ccc(NS(=O)(=O)c2c(C)nc3sc(C)c(C)n3c2=O)cc1F", "Potency": "inconclusive [phenotype inactive, single point]"}, {"smiles": "CCCn1c2ccccc2c2cnn(CC(=O)NCCCOC(C)C)c(=O)c21", "Potency": "inactive"}, {"smiles": "CCc1ccc(C(=O)c2cn(CC(=O)Nc3ccc(F)cc3)c3ccc(F)cc3c2=O)cc1", "Potency": "inconclusive [phenotype inactive, single point]"}]}]}
